The list shows a part of the results. At the low end of the ranking, values are background and their order means little. The protein was read in a cell extract, so binding may be indirect.

In the assay the target is T1, HNF4alpha8 (COS-7 nuclear extract) (UniProt P41235-5).
T1 sequence: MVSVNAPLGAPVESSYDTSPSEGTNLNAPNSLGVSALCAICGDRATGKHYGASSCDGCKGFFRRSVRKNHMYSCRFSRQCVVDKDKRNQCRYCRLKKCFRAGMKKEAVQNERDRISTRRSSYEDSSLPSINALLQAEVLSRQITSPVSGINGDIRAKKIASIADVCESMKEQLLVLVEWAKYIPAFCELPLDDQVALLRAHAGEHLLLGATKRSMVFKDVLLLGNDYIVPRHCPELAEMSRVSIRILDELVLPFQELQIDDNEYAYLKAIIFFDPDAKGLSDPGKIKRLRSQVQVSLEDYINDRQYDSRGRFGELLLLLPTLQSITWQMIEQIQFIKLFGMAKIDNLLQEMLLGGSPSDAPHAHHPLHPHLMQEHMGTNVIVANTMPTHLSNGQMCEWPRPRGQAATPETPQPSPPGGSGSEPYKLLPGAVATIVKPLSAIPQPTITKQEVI
Briefly: protein-binding microarray. The conditions noted are these: COS-7 nuclear extract on double-stranded Agilent 4x180k PBM; binding buffer, salt, pH and temperature not given; high values mean tight binding; double strand, one strand shown; sequences stand for … in …GCCTAGGGAGATTAGAGTATCGGTCGA
Turning to GACACCCGCTGGCGCCATCCAAAGGCCCGA, the binding signal (log2 normalized intensity) was -1.19.

On to GGAATGGGTATAACCTTCTTCTATGCCCTC, for which the binding signal (log2 normalized intensity) was determined as 2.85.

Take CAGTAAGTTTACTTCATCTAAGTGGGTCTA: the binding signal (log2 normalized intensity) was 1.5.

Turning to AGTGCGATGATCATGGCTCACTGCACCTTG, the binding signal (log2 normalized intensity) stood at 0.737.

AAGTTTCAGGCTATGAATGAAGTCTTTTCC: the binding signal (log2 normalized intensity) was -0.0319.

In the case of GCTGACCCTCTCCCCACCATTAACCCTACA, the binding signal (log2 normalized intensity) was 4.09.

Consider TAACATCTAAGATTGGCCCTGATAATCAAT, for which the binding signal (log2 normalized intensity) was -1.21.

GGGTCATGGAGCTGGAGGGCAAAGGTCAGA: the binding signal (log2 normalized intensity) came out at 8.54.

Turning to TGCCCTGGATCTTGAAGCAGAAAACCACTG, the binding signal (log2 normalized intensity) is -1.47.

On to AATCCAGACACTTTGGCTCCAGAGTCCACA, for which the binding signal (log2 normalized intensity) worked out at 3.15.

For the sequence AAGCATACAGATTACATCTCCAGCTTATCT, the binding signal (log2 normalized intensity) was -1.39.

Consider CATTCTGCTGCTCTTTAATCCTAATAATCC, for which the binding signal (log2 normalized intensity) was -0.0986.

For TTGGACTCTGCCCTTGGCCTACTTAGTCCA, the binding signal (log2 normalized intensity) is 4.47.

Regarding TCTGCTTCCTGCTACAGAGCTCAGATTTCA, the binding signal (log2 normalized intensity) is -1.3.

Turning to GAGGCCCTCTGTTGCTTCAAAGGGCAAAAG, the binding signal (log2 normalized intensity) was determined as 2.21.

With GACCCTGGGCTTAGTTGCTCGCTCCTTAGG, the binding signal (log2 normalized intensity) was -0.962.

Regarding AGATACTCACCAGTGGGCCCAGAGCACAAC, the binding signal (log2 normalized intensity) is -1.28.

Take CTGTGACCATCTCCTTTTGTGAGAGGTCAA: the binding signal (log2 normalized intensity) worked out at 3.59.

Regarding TTGCTTTTCACAGTCGATCTTTGACCGCTG, the binding signal (log2 normalized intensity) worked out at 6.09.

On to ATCTAAGATTCCCCCTACCCTCAATATCTG, for which the binding signal (log2 normalized intensity) was 4.26.

On to TACAGGTGAATTTCAGTGCCCTTTGAGATT, for which the binding signal (log2 normalized intensity) was found to be 4.04.

Turning to TTGCCATTGTACAGGTTCCCTCATGATTTA, the binding signal (log2 normalized intensity) came out at 0.89.

For TTGCCTTGTTTGTTTTGAGGGTTAAAGGAG, the binding signal (log2 normalized intensity) came out at 1.63.

On to ATACGATAATGTCAAACATCTTATATCAAC, for which the binding signal (log2 normalized intensity) is -0.453.

As to ATCTGGAGGGGGCAGGACAGCAGGAGTGGG, the binding signal (log2 normalized intensity) was -1.33.

Consider TCAAAGAATTTAACACCAGATAAACAGAAG, for which the binding signal (log2 normalized intensity) was -0.982.

Take CATAAAAGTTCTCATGCTAAAAGTTGAATT: the binding signal (log2 normalized intensity) is -0.111.

Take CCCAGTTCATAGGTCAATTCTTTGAAGTCT: the binding signal (log2 normalized intensity) amounted to 3.86.

Regarding AAGATCATTCCAGGAATGTTCAAGAAGTTC, the binding signal (log2 normalized intensity) is 0.0918.

Take GCCTGGCAAGACTTCTTCAGGGAGACTTCC: the binding signal (log2 normalized intensity) was -1.22.

With ACAGGGTGATCAGAGATCTAGGTGAGGGAT, the binding signal (log2 normalized intensity) is -1.22.

With TAACTGTATAACCTGGAACTGAAAGAGACC, the binding signal (log2 normalized intensity) is -1.25.

GAGTGGGAGGCTGGGGCCTCCTGGCTGGGC: the binding signal (log2 normalized intensity) was -1.34.

Take GATCACCCAGGTCCAAGTCACTATCACCTC: the binding signal (log2 normalized intensity) is -0.309.

As to GGGCGTGTGTTAGACTTTGGACCTGGCCTG, the binding signal (log2 normalized intensity) worked out at 7.98.

As for AAACTGGGCAAAGGTCAGGATCTCAGCCGC, the binding signal (log2 normalized intensity) was 5.23.

For GAAGATAGCTTTAAAGACCAAAGATCACAG, the binding signal (log2 normalized intensity) was 2.14.

Consider GGTTAAAAGGACAACCTTCGGCCGGGCACG, for which the binding signal (log2 normalized intensity) is 1.39.

In the case of GGGATTATGGCCGGCCCCTGGAATGCTGAG, the binding signal (log2 normalized intensity) is -1.26.

As to AAACATCTAATGAACTGATTAGAACATTAA, the binding signal (log2 normalized intensity) was -0.884.

As to GGGCCCAGGGTTCTCTGTGACCTTTGGAAG, the binding signal (log2 normalized intensity) was determined as 9.36.

Take TGGACTATGTTTACACAGCCTTGTAGCAAG: the binding signal (log2 normalized intensity) is -1.03.

Consider AGCAAGTTTTATATGAAAACAAAGGAAACC, for which the binding signal (log2 normalized intensity) is 0.0339.

AAACGTATGACTTTGGAGCACTCATTCCTA: the binding signal (log2 normalized intensity) was -1.28.

GAGTGTCCTGCCCCCTGGAGGAGTGAGGGA: the binding signal (log2 normalized intensity) came out at 1.45.

Consider CAGAAGAAACATGCGATACTTGACCTGCAA, for which the binding signal (log2 normalized intensity) stood at 2.7.

Take TTACACAAAATCGCCACTACAAAGGGAATC: the binding signal (log2 normalized intensity) was -1.36.

Take CTCAGGAACTTTGTTTGTGTTTCCCTCCCT: the binding signal (log2 normalized intensity) is 3.05.

On to ATGCAACTTTTAATCAGAGCAGTTCAGCTC, for which the binding signal (log2 normalized intensity) was -1.38.

Turning to TTCCAGCCTCCTGCTCTGGGCTTTCTCTGC, the binding signal (log2 normalized intensity) is -1.34.

With CTTCCATTGTGATTCCTGTGATACCTTCTT, the binding signal (log2 normalized intensity) turned out to be 1.69.

As for GCTACTGTGGTTCCCAAGAAGAGCCCAGAC, the binding signal (log2 normalized intensity) was -1.36.

As for GCACAGGGTTGAGTGGTGACTGAAGTCCAA, the binding signal (log2 normalized intensity) was determined as 2.43.

Take GACTGATAAGGCTAAGTGGAGGATTTGGGT: the binding signal (log2 normalized intensity) is -1.13.

For CCACGCACTCGCCTGACTCCCTGACGCCAT, the binding signal (log2 normalized intensity) was -1.36.

CTAAAGTCCAAAGTCTCAACTAAGTGTTAT: the binding signal (log2 normalized intensity) stood at 4.57.

In the case of TTTGTGTGTTTAATGTTTTCATTCTGATTT, the binding signal (log2 normalized intensity) was determined as 1.31.

For the sequence AGGAGAATCGCTTGAACCCAGGGGACGGAA, the binding signal (log2 normalized intensity) is -0.93.

In the case of TCCAAATGATAATGCCAAGGACTGAAAGAA, the binding signal (log2 normalized intensity) was -1.14.

For the sequence CCTGGGCTGGAAAGGCCACCACAAACCCTT, the binding signal (log2 normalized intensity) is -1.32.

With GCTTGAGGCCAGCTCATAGGGATCAGATAA, the binding signal (log2 normalized intensity) is -1.27.

Regarding AAAATAGGGTAGTTTGGAGATGCCGTTAAG, the binding signal (log2 normalized intensity) was -0.1.

For the sequence GGACTTTACACAGACCTTTACCCACGGTCA, the binding signal (log2 normalized intensity) came out at 3.14.

On to CCATTTTGCAATTGACAAATGGCTTGTGCT, for which the binding signal (log2 normalized intensity) was -1.41.

In the case of CCTCCCAGAGCATTGTTTATTGTTGCTGAT, the binding signal (log2 normalized intensity) worked out at 0.868.

Regarding CGCGTCGAACTAGCTTGGTGCAGGGGCGGG, the binding signal (log2 normalized intensity) was -1.08.

As for CACATACACCTGCGTGTACTAAGGTCTTAA, the binding signal (log2 normalized intensity) is 1.24.

With CATGTAACTGCTATTGGTTGTCAGACTGGT, the binding signal (log2 normalized intensity) was found to be 1.6.

Turning to CTTGAAAGTAAGCAGACACTGAAAGATGGT, the binding signal (log2 normalized intensity) is -1.22.

Take GTTGCAAATTATTACTCCCACCGTGTGTGC: the binding signal (log2 normalized intensity) came out at 0.679.

GAAGAATGGAATTGCCATTGACTGAGATAG: the binding signal (log2 normalized intensity) is -0.91.

For the sequence GGGACCAAGGGTCAGTTCATTAAAAAAAAA, the binding signal (log2 normalized intensity) stood at 2.13.
